According to the supplement of paper PMC4967469:
By IC50 is meant the dose at which the fit gives 50% viability; a limit (>, <) means that the fit lies beyond the doses tested. AUC is the area under the same curve over the 256-fold range up to the top dose, as a fraction; the more sensitive the line, the further below 1. For some of these results: A top dose marked as inferred was derived from the fitted curves, not read from the paper.

Experiments:
Experiment in all cases: Viability of human cancer cell lines after 72 h of drug (GDSC screen)
[1] = compound: Cc1ccc2nc(NCCN)c3ncc(C)n3c2c1 [BMS-345541]; details: top dose 16 µM
Description: (§1)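 Human cancer cell lines in 384-well plates, medium with 10% serum, drug for 72 h over a 256-fold dose range (nine 2-fold or five 4-fold steps up to the top dose). Adherent lines were fixed and stained with the nucleic acid dye Syto60, suspension lines read with resazurin; signal relative to control wells, capped at 0 and 100%. One two-parameter sigmoid per drug and line, fitted in a mixed model over all curves with the slope shared within a line.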

[2] = compound: COc1cc([C@@H]2c3cc4c(cc3[C@@H](O[C@@H]3O[C@@H]5CO[C@@H](C)O[C@H]5[C@H](O)[C@H]3O)[C@H]3COC(=O)[C@H]23)OCO4)cc(OC)c1O [Etoposide]; details: top dose 16 µM
Description: as §1

[3] = compound: Oc1nc(-c2ccc(C(F)(F)F)cc2)nc2c1CSCC2 [XAV 939]; details: top dose 5 µM; top dose inferred
Description: as §1

[4] = compound: COc1cc(C(=O)NC2CCN(C)CC2)ccc1Nc1ncc2c(n1)N(C1CCCC1)C(C)CC(=O)N2C [NPK76-II-72-1]; details: top dose 10.24 µM; top dose inferred
Description: as §1

[5] = compound: NC(=O)Nc1cc(-c2cccc(F)c2)sc1C(=O)N[C@H]1CCCNC1 [AZD7762]; details: top dose 2 µM
Description: as §1

[6] = compound: O=C(O)c1ccc(-c2c[nH]c3ncc(-c4ccccc4)cc23)cc1C1CCCC1 [GSK-650394]; details: top dose 16 µM; top dose inferred
Description: as §1

[7] = compound: C=C(c1ccc(C(=O)O)cc1)c1cc2c(cc1C)C(C)(C)CCC2(C)C [Bexarotene]; details: top dose 8 µM
Description: as §1

Row | Cell Line | AUC [1] | IC50 [1] [µM] | AUC [2] | IC50 [2] [µM] | AUC [3] | IC50 [3] [µM] | AUC [4] | IC50 [4] [µM] | AUC [5] | IC50 [5] [µM] | AUC [6] | IC50 [6] [µM] | AUC [7] | IC50 [7] [µM]
1 | AU565 (breast, adherent) | 0.882 | > 16 | 0.657 | 2.87 | 0.98 | > 5 | 0.911 | > 10.2 | 0.724 | 0.589 | 0.93 | > 16 | 0.909 | > 8
2 | BB30-HNC (head and neck, adherent) | 0.859 | 12.8 | 0.182 | 0.114 | 0.923 | > 5 | 0.919 | > 10.2 | 0.557 | 0.178 | 0.571 | 1.56 | 0.884 | > 8
3 | BE-13 (lymphoblastic leukaemia, suspension) | 0.79 | 6.64 | 0.368 | 0.445 | 0.975 | > 5 | 0.381 | 0.308 | 0.613 | 0.25 | 0.945 | > 16 | 0.95 | > 8
4 | BT-474 (breast, adherent) | 0.887 | > 16 | 0.955 | > 16 | 0.97 | > 5 | 0.964 | > 10.2 | 0.969 | > 2 | 0.986 | > 16 | 0.986 | > 8
5 | C2BBe1 (large intestine, adherent) | 0.964 | > 16 | 0.928 | > 16 | 0.984 | > 5 | 0.984 | > 10.2 | 0.705 | 0.518 | 0.923 | > 16 | 0.963 | > 8
6 | CAL-27 (head and neck, adherent) | 0.836 | 10.9 | 0.846 | 12 | 0.908 | > 5 | 0.891 | > 10.2 | 0.767 | 0.758 | 0.623 | 2.2 | 0.982 | > 8
7 | CAL-33 (head and neck, adherent) | 0.881 | > 16 | 0.427 | 0.631 | 0.922 | > 5 | 0.869 | 9.45 | 0.635 | 0.296 | 0.765 | 5.85 | 0.955 | > 8
8 | CAL-62 (thyroid, adherent) | 0.918 | > 16 | 0.49 | 0.939 | 0.958 | > 5 | 0.912 | > 10.2 | 0.758 | 0.665 | 0.741 | 4.71 | 0.922 | > 8
9 | CGTH-W-1 (thyroid, adherent) | 0.956 | > 16 | 0.163 | 0.0938 | 0.969 | > 5 | 0.986 | > 10.2 | 0.119 | < 0.00781 | 0.606 | 1.95 | 0.933 | > 8
10 | CL-11 (large intestine, adherent) | 0.974 | > 16 | 0.978 | > 16 | 0.969 | > 5 | 0.987 | > 10.2 | 0.81 | 1.22 | 0.986 | > 16 | 0.983 | > 8
11 | CP50-MEL-B (melanoma, adherent) | 0.926 | > 16 | 0.988 | > 16 | 0.983 | > 5 | 0.944 | > 10.2 | 0.988 | > 2 | 0.975 | > 16 | 0.95 | > 8
12 | CW-2 (large intestine, adherent) | 0.868 | > 16 | 0.98 | > 16 | 0.988 | > 5 | 0.971 | > 10.2 | 0.974 | > 2 | 0.989 | > 16 | 0.989 | > 8
13 | CaR-1 (large intestine, adherent) | 0.89 | > 16 | 0.752 | 7.89 | 0.779 | 3.22 | 0.944 | > 10.2 | 0.868 | > 2 | 0.936 | > 16 | 0.893 | > 8
14 | DBTRG-05MG (glioma, adherent) | 0.892 | > 16 | 0.626 | 2.38 | 0.982 | > 5 | 0.917 | > 10.2 | 0.775 | 0.933 | 0.967 | > 16 | 0.958 | > 8
15 | DJM-1 (skin, adherent) | 0.936 | > 16 | 0.312 | 0.299 | 0.973 | > 5 | 0.956 | > 10.2 | 0.783 | 0.836 | 0.948 | > 16 | 0.928 | > 8
16 | DOK (head and neck, adherent) | 0.879 | > 16 | 0.908 | > 16 | 0.834 | > 5 | 0.976 | > 10.2 | 0.737 | 0.857 | 0.976 | > 16 | 0.9 | > 8
17 | DoTc2-4510 (cervix, adherent) | 0.895 | > 16 | 0.51 | 1.06 | 0.969 | > 5 | 0.934 | > 10.2 | 0.771 | 0.726 | 0.842 | 10.4 | 0.933 | > 8
18 | ES1 (Ewing sarcoma, adherent) | 0.897 | > 16 | 0.288 |  | 0.983 | > 5 | 0.695 | 2.23 | 0.617 | 0.261 | 0.78 | 6.49 | 0.927 | > 8
19 | ES6 (Ewing sarcoma, adherent) | 0.755 | 6.61 | 0.849 | > 16 | 0.944 | > 5 | 0.844 | 10.1 | 0.669 | 0.417 | 0.766 | 7.3 | 0.885 | > 8
